Measured values: US9918964B2, “Reducing platelet activation, aggregation and platelet-stimulated thrombosis or blood coagulation by reducing mitochondrial respiration” (priority 2010, dated 2018)
At least one read-out could not be matched to a standard name with certainty.

Tested on: platelets in whole blood
Test: Platelet function testing with the Hemostasis Mechanism Analyzer (HMA): clumping, sticking, clotting in whole blood
Type: cell-based, human
Settings: 0 dosage = 100
[1] = dosage 0.67, dosage unit not given
[2] = Relative Dosage (Saturated Solution) 1.2
[3] = Relative Dosage (Saturated Solution) 1.6
[4] = Relative Dosage (Saturated Solution) 0.4
[5] = Relative Dosage (Saturated Solution) 2.1
[6] = Relative Dosage (Saturated Solution) 3.2
[7] = Relative Dosage (Saturated Solution) 4.3
[8] = Relative Dosage (Saturated Solution) 2.2
[9] = Relative Dosage (Saturated Solution) 3.3
[10] = Relative Dosage (Saturated Solution) 0.3
[11] = Relative Dosage (Saturated Solution) 0.5
[12] = Relative Dosage (Saturated Solution) 0.7
[13] = Relative Dosage (Saturated Solution) 3.9
[14] = Relative Dosage (Saturated Solution) 5.2
[15] = Relative Dosage (Saturated Solution) 1.5
[16] = Relative Dosage (Saturated Solution) 0.1
[17] = Relative Dosage (Saturated Solution) 0.6
[18] = Relative Dosage (Saturated Solution) 1.0
[19] = Relative Dosage (Saturated Solution) 1.3
[20] = Relative Dosage (Saturated Solution) 1.4
[21] = dosage 2 (2.000), dosage unit not given
[22] = dosage 7, dosage unit not given
[23] = dosage 1 (1.000), dosage unit not given
[24] = dosage 2.3, dosage unit not given

SMILES: c1ccc(-c2cnn[nH]2)cc1 [Compound 2, 5-phenyl-1H-triazole]
- % clot time increase [1]: 104%
- % clump time increase [1]: 109%
- % stick time increase [1]: 103%

SMILES: CCOC(=O)c1[nH]nnc1-c1ccccc1 [Compound 9, ethyl 4-phenyl-1H-triazole-5-carboxylate]
- % clot time increase [2]: 95%
- % clump time increase [2]: 102%
- % stick time increase [2]: 109%
- % clot time increase [3]: 99%
- % clump time increase [3]: 127%
- % stick time increase [3]: 124%

SMILES: O=Cc1ccc(-c2nnn[nH]2)cc1 [Compound 13, 4-(1H-tetrazol-5-yl)benzaldehyde]
- % clot time increase [4]: 96%
- % clump time increase [4]: 100%
- % stick time increase [4]: 96%
- % clot time increase [5]: 151%
- % clump time increase [5]: 100%
- % stick time increase [5]: 92%
- % clot time increase [6]: 194%
- % clump time increase [6]: 103%
- % stick time increase [6]: 102%
- % clot time increase [7]: 243%
- % clump time increase [7]: 117%
- % stick time increase [7]: 104%

SMILES: CC(=O)c1ccc(-c2nnn[nH]2)cc1 [Compound 15, 1-[4-(1H-tetrazol-5-yl)phenyl]ethanone]
- % clot time increase [4]: 97%
- % clump time increase [4]: 93%
- % stick time increase [4]: 90%
- % clot time increase [8]: 148%
- % clump time increase [8]: 78%
- % stick time increase [8]: 84%
- % clot time increase [9]: 179%
- % clump time increase [9]: 93%
- % stick time increase [9]: 94%
- % clot time increase [7]: 253%
- % clump time increase [7]: 100%
- % stick time increase [7]: 98%

SMILES: CCOC(=O)c1nn[nH]c1C(=O)OCC [Compound 41, diethyl 1H-triazole-4,5-dicarboxylate]
- % clot time increase [10]: 103%
- % clump time increase [10]: 105%
- % stick time increase [10]: 101%
- % clot time increase [11]: 108%
- % clump time increase [11]: 119%
- % stick time increase [11]: 112%
- % clot time increase [12]: 113%
- % clump time increase [12]: 139%
- % stick time increase [12]: 135%

SMILES: Fc1ccc(-c2nnn[nH]2)cc1 [Compound 43, 5-(4-fluorophenyl)-1H-tetrazole]
- % clot time increase [13]: 104%
- % clump time increase [13]: 100%
- % stick time increase [13]: 103%
- % clot time increase [14]: 102%
- % clump time increase [14]: 131%
- % stick time increase [14]: 121%

SMILES: c1ccc2cc(-c3nnn[nH]3)ccc2c1 [Compound 44, 5-(2-naphthyl)-1H-tetrazole]
- % clot time increase [15]: 99%
- % clump time increase [15]: 121%
- % stick time increase [15]: 109%

SMILES: Brc1nn[nH]c1Br [Compound 48, 4,5-dibromo-1H-triazole]
- % clot time increase [16]: 105%
- % clump time increase [16]: 102%
- % stick time increase [16]: 108%
- % clot time increase [10]: 102%
- % clump time increase [10]: 132%
- % stick time increase [10]: 147%
- % clot time increase [11]: 102%
- % clump time increase [11]: 194%
- % stick time increase [11]: 190%
- % clot time increase [12]: 111%
- % clump time increase [12]: 276%
- % stick time increase [12]: 247%

SMILES: Clc1nnnn1-c1ccccc1 [Compound 54, 5-chloro-1-phenyl-tetrazole]
- % clot time increase [11]: 103%
- % clump time increase [11]: 96%
- % stick time increase [11]: 98%
- % clot time increase [17]: 95%
- % clump time increase [17]: 127%
- % stick time increase [17]: 113%

SMILES: Cc1ccc2nnnn2c1 [Compound 65, 6-methyltetrazolo[1,5-a]pyridine]
- % clot time increase [4]: 101%
- % clump time increase [4]: 97%
- % stick time increase [4]: 101%
- % clot time increase [17]: 97%
- % clump time increase [17]: 112%
- % stick time increase [17]: 114%
- % clot time increase [12]: 107%
- % clump time increase [12]: 134%
- % stick time increase [12]: 137%

SMILES: c1ccc(CCc2nn[nH]n2)cc1 [Compound 66, 5-phenethyl-2H-tetrazole]
- % clot time increase [16]: 98%
- % clump time increase [16]: 105%
- % stick time increase [16]: 108%
- % clot time increase [10]: 101%
- % clump time increase [10]: 127%
- % stick time increase [10]: 129%
- % clot time increase [11]: 111%
- % clump time increase [11]: 141%
- % stick time increase [11]: 155%
- % clot time increase [12]: 112%
- % clump time increase [12]: 162%
- % stick time increase [12]: 171%

SMILES: c1ccn2nnnc2c1 [Compound 67, tetrazolo[1,5-a]pyridine]
- % clot time increase [17]: 102%
- % clump time increase [17]: 112%
- % stick time increase [17]: 110%
- % clot time increase [18]: 106%
- % clump time increase [18]: 127%
- % stick time increase [18]: 115%
- % clot time increase [19]: 110%
- % clump time increase [19]: 135%
- % stick time increase [19]: 128%

SMILES: N#Cc1ccc(-c2nn[nH]n2)cc1 [Compound 73, 4-(2H-tetrazol-5-yl)benzonitrile]
- % clot time increase [20]: 99%
- % clump time increase [20]: 118%
- % stick time increase [20]: 111%

SMILES: Cc1cncs1 [Compound 94, 5-methylthiazole]
- % clot time increase [21]: 102%
- % clump time increase [21]: 119%
- % stick time increase [21]: 109%
- % clot time increase [22]: 117%
- % clump time increase [22]: 188%
- % stick time increase [22]: 170%

SMILES: N=C(N)NC(N)=S [Compound 102, carbamimidoylthiourea]
- % clot time increase [23]: 108%
- % clump time increase [23]: 98%
- % stick time increase [23]: 101%
- % clot time increase [21]: 101%
- % clump time increase [21]: 101%
- % stick time increase [21]: 106%
- % clot time increase [24]: 103%
- % clump time increase [24]: 100%
- % stick time increase [24]: 96%
